Assays:
[1] = target: T1, CXCR7 (HA tagged) overexpressed in HEK 293T cells (UniProt P56485 1-362); test: ELISA; saturation binding: lysates of HEK 293T cells overexpressing the receptor loaded onto high-affinity-binding ELISA plates coated with anti-HA antibody; serial dilutions of AP-conjugated ligand (or AP alone); AP activity read; Scatchard analysis; n=3; settings: one partner purified
T1 construct: CXCR7 (C-X-C chemokine receptor type 7), HA tagged, overexpressed from an expression plasmid in HEK 293T cells; source: HEK 293T, transfected, in lysate

[2] = target: T2, CXCR4 (HA tagged) overexpressed in HEK 293T cells (UniProt P70658 1-359); test: as above; settings: one partner purified
T2 construct: CXCR4 (C-X-C chemokine receptor type 4), HA tagged, overexpressed in HEK 293T cells; source: HEK 293T, transfected, in lysate
T2 sequence (P70658 whole entry): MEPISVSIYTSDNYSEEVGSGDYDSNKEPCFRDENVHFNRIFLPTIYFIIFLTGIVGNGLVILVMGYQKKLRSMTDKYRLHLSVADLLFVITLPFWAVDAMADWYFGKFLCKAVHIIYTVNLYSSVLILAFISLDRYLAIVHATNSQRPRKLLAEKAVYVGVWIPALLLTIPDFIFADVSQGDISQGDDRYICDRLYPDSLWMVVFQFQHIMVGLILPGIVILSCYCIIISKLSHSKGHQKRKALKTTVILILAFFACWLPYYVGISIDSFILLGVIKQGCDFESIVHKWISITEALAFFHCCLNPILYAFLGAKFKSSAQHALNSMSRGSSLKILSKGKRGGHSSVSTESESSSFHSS

T1 sequence (P56485 whole entry): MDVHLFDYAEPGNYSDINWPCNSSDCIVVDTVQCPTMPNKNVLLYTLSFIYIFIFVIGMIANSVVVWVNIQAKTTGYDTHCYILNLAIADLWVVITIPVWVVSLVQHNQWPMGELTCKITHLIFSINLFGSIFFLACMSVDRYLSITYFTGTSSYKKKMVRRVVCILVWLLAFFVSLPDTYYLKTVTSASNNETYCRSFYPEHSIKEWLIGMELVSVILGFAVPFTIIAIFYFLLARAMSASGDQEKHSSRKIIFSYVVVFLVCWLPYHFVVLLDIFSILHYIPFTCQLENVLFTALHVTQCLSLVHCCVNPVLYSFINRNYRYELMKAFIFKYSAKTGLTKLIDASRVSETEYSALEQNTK

B1: Sdf-1α-AP (stromal cell-derived factor 1α conjugated with alkaline phosphatase) (ligand)
chain: not shown
notes: Sdf-1α (stromal cell-derived factor 1α) chemokine conjugated with alkaline phosphatase (AP)
Kd [1]: 4.93 nM | Kd [2]: 10.1 nM
